The source of these data is PubChem BioAssay AID1508642 (National Center for Advancing Translational Sciences (NCATS), 2021).

About 200 (0.47%) of roughly 43,000 compounds were called active. Not shown: some 12% with an inconclusive outcome. The call rests on the fitted dose curve; in most records, active means well fitted cell-killing curve with a large enough effect; inconclusive means small, poorly fitted or top-dose-only effect, or effect the other way; inactive means flat fitted curve, though single readings scatter. This is one part of the list.
On the % scale 0 is the no-effect control and ±100 the full control effect.

The experiment is described as follows: Cell viability qHTS assay in S16 Pmp22-F2sN cells. Further: nearly all actives have a fitted effect of over 65% in size. The following applies: S16 Pmp22-F2sN Schwann cells viability, CellTiter-Glo, 24 h; series mostly up to 57.5 µM; activity change, negative = cytotoxicity: at the top concentration. Put shortly:
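Used to flag compounds lowering reporter output through toxicity, this quantitative HTS measures ATP-based CellTiter-Glo luminescence in S16 Pmp22-F2sN Schwann cells after 24 h compound exposure at 37C.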
`CCc1ccc(NC(=O)CN2C(=O)C(=O)c3ccccc32)cc1`: the “activity change, negative = cytotoxicity” value was inactive: -7.2%.

Turning to `O=C(Nc1cccc(Cl)c1)N1Cc2ccccc2Oc2ncccc21`, the “activity change, negative = cytotoxicity” value was inactive: 2.88%.

For the molecule `COc1ccc(S(=O)(=O)Nc2ccc(O)c(Sc3nc4ccccc4s3)c2)cc1`, the “activity change, negative = cytotoxicity” value was inactive: -18.7%.

On to `CCCC(=O)NC1CC(=O)N(c2ccc3c(c2)OCCO3)C1` (configuration not stated), for which the “activity change, negative = cytotoxicity” value was inactive: -8.01%.

With `O=C(Nc1cccc(C(=O)OCc2cc(=O)n3nc(C4CC4)sc3n2)c1)c1ccc(F)cc1`, the “activity change, negative = cytotoxicity” value was inactive: -3.26%.

Take `CC(=O)c1ccc(S(=O)(=O)N2CCC(Oc3ccc(-n4cnnn4)cc3)CC2)cc1`: the “activity change, negative = cytotoxicity” value was inactive: 13.5%.

Regarding `COc1ccccc1C1C(C(N)=O)=C(C)Nc2nc(SCc3ccccc3F)nn21` (configuration not stated), the “activity change, negative = cytotoxicity” value is inactive: 5.66%.

Consider `Cc1c(C(=O)N(C)C)sc2c1c(=O)n(-c1ccc(Cl)c(Cl)c1)c(=O)n2Cc1ccc(F)cc1`, for which the “activity change, negative = cytotoxicity” value was inactive: -8.51%.

Turning to `CC1CCCCN1Cc1nc2c(c(=O)n(C)c(=O)n2C)n1Cc1ccc(Br)cc1` (configuration not stated), the “activity change, negative = cytotoxicity” value was inactive: -0.677%.

For `COc1ccc(NC(=O)c2c(-c3ccc(C)cc3)nnc3ccccc23)cc1OC`, the “activity change, negative = cytotoxicity” value was inactive: -4.08%.

Consider `Cc1ccc2c(Sc3ccc(Cl)cc3)c(C(=O)N3CCCCC3)[nH]c2c1`, for which the “activity change, negative = cytotoxicity” value was inactive: 1.45%.

With `COc1cccc(NC(=O)CSc2cc(C)c3ccccc3n2)c1`, the “activity change, negative = cytotoxicity” value was inactive: -31.5%.

In the case of `COc1ccccc1-c1nc(CNC(=O)NC2CCCCC2)c(C)o1`, the “activity change, negative = cytotoxicity” value is inactive: -3.62%.

As for `Cc1ccc(NC(=O)CCn2nc(C)c3c(C)n(-c4ccccc4)nc3c2=O)cc1Cl`, the “activity change, negative = cytotoxicity” value is inactive: 0.46%.

As to `O=C(Cn1ncc2ccsc2c1=O)N1CCN(c2ccc(Cl)cc2)CC1`, the “activity change, negative = cytotoxicity” value was inactive: 1.66%.

Take `CC(C)c1ccc(NC(=O)c2cn(C3CCCC3)c(=O)c3c2c2ccccc2n3C)cc1`: the “activity change, negative = cytotoxicity” value was inactive: -15.2%.

Consider `COCCn1c(C)cc(O)c(C(c2ccccc2)N2CCN(c3ccccc3F)CC2)c1=O` (configuration not stated), for which the “activity change, negative = cytotoxicity” value is inactive: -1.2%.

With `O=C(CSc1cn(CCNC(=O)c2ccccc2F)c2ccccc12)Nc1ccc2c(c1)OCCO2`, the “activity change, negative = cytotoxicity” value is inactive: 13.8%.

Turning to `CC(Nc1ccc(-c2nc(-c3cccnc3)no2)cc1[N+](=O)[O-])c1ccccc1` (configuration not stated), the “activity change, negative = cytotoxicity” value is inactive: 18.2%.

Take `CCS(=O)(=O)c1ccc(C(=O)N2CCN(c3nc4c(OC)ccc(C)c4s3)CC2)cc1`: the “activity change, negative = cytotoxicity” value is inactive: -24.4%.

With `CCOC(=O)N1CCc2c(sc(NCc3cc(OC)ccc3OC)c2C(=O)Nc2cc(OC)ccc2OC)C1`, the “activity change, negative = cytotoxicity” value was inactive: -16.6%.

In the case of `O=C(CSc1nc2c([nH]c3ccccc32)c(=O)n1-c1ccccc1)Nc1cccc(C(F)(F)F)c1`, the “activity change, negative = cytotoxicity” value is inactive: -8.42%.

Consider `Cc1ccc(N(C)C(=O)Cn2ncc3c([nH]c4ccccc43)c2=O)cc1C`, for which the “activity change, negative = cytotoxicity” value is inactive: -0.31%.

Take `COc1ccc(NC(=O)CCc2c(C)nn(-c3ccc(N4CCCC4)nn3)c2C)cc1Cl`: the “activity change, negative = cytotoxicity” value is inactive: -20.7%.

Take `COc1ccc(N2CCN(C(=O)Cn3cnc4sc(C)c(S(=O)(=O)N5CCCCC5)c4c3=O)CC2)cc1`: the “activity change, negative = cytotoxicity” value is inactive: 2.78%.

As for `Cc1ccc(Cn2c(=O)n(CCc3ccccc3)c(=O)c3sc4ccccc4c32)cc1`, the “activity change, negative = cytotoxicity” value was inactive: 13.6%.

In the case of `Cc1ccc(NC(=O)CCn2cccn2)c(C)c1`, the “activity change, negative = cytotoxicity” value is inactive: 4.41%.

Regarding `COC(=O)c1cc(-c2ccc(Cl)cc2)c2c(=O)[nH]c(=O)n(C)c2n1`, the “activity change, negative = cytotoxicity” value was inactive: 19.2%.

Turning to `CCOCCCNC(=O)C1CCN(c2nc3ccc(C)cc3[nH]2)CC1`, the “activity change, negative = cytotoxicity” value is inactive: 4%.

As to `Cc1ccc(Nc2c(-c3cccnc3)nc3ccc(C)cn23)cc1`, the “activity change, negative = cytotoxicity” value was inactive: -7.66%.

For `CCc1nn(CC(=O)N2CCN(c3cccc(C)c3)C(C)C2)c(=O)c2cc3sccc3n12` (configuration not stated), the “activity change, negative = cytotoxicity” value is inactive: 2.39%.

On to `CCOCCCNC(=O)C(c1ccc(C)cc1)N(Cc1ccc2c(c1)OCO2)C(=O)c1ccccc1O` (configuration not stated), for which the “activity change, negative = cytotoxicity” value was inactive: -16.4%.

In the case of `Cc1ccc(NC(=O)n2ncc3c(C)cccc32)c(C)c1`, the “activity change, negative = cytotoxicity” value was inactive: 1.25%.

With `O=C(CSc1nnc2scc(-c3ccc(Cl)cc3)n12)Nc1ccc(F)cc1`, the “activity change, negative = cytotoxicity” value is inactive: -4.29%.

As to `COc1ccccc1C(=O)NC1(C(F)(F)F)NC(=O)N(CCc2ccccc2)C1=O` (configuration not stated), the “activity change, negative = cytotoxicity” value was inactive: 4.9%.

As to `Cc1cc(C)c(NC(=O)CSc2nc(=O)n(Cc3ccncc3)c3c2CCC3)c(C)c1`, the “activity change, negative = cytotoxicity” value is inactive: 1.18%.

As to `CC1=C(C(=O)Nc2ccccc2)C(c2ccccn2)n2nc(SCc3ccccc3)nc2N1` (configuration not stated), the “activity change, negative = cytotoxicity” value is inactive: 18.5%.

For the molecule `Cc1ccc(-n2nc(C)c3c(C(=O)Nc4ccccc4C(F)(F)F)cc(C)nc32)cc1`, the “activity change, negative = cytotoxicity” value is inactive: 5.83%.

Turning to `CCOc1ccc2nc(N(Cc3cccnc3)C(=O)c3cccs3)sc2c1`, the “activity change, negative = cytotoxicity” value is inactive: 12.6%.

As to `COc1ccc(-c2nc3ccccc3n2Cc2ccccc2)cc1`, the “activity change, negative = cytotoxicity” value was inactive: 1.54%.

In the case of `CCCCCOc1ccc(NC(=O)Cn2c(-c3nonc3N)nc3ccccc32)cc1`, the “activity change, negative = cytotoxicity” value was inactive: 13.7%.

Take `COc1cccc(CNC(=O)Cn2nc(C)n3c(cc4cc(C)ccc43)c2=O)c1OC`: the “activity change, negative = cytotoxicity” value is inactive: 6.05%.

In the case of `CCSc1nc(-c2cccc(Cl)c2)nc2c1Cc1c(CO)cnc(C)c1O2`, the “activity change, negative = cytotoxicity” value is inactive: -4.46%.

For the molecule `CCCN(C(=O)c1cc2c(=O)oc3ccc(C)cc3c2s1)c1ccc(OCC)cc1`, the “activity change, negative = cytotoxicity” value is inactive: 3.35%.

Regarding `COc1ccc(C2Nc3ccccc3-c3cc(C)nn32)c(OC)c1` (configuration not stated), the “activity change, negative = cytotoxicity” value was inactive: -2.73%.

With `Cc1cccc(C)c1OCCn1c(CCNC(=O)C2CCCCC2)nc2ccccc21`, the “activity change, negative = cytotoxicity” value is inactive: -16.8%.

Turning to `COc1ccc(C)c2sc(NC(=O)c3ccc(S(=O)(=O)N4CCOCC4)cc3)nc12`, the “activity change, negative = cytotoxicity” value was inactive: 5.41%.
